Laboratory results as given in PubChem BioAssay AID1240 (Sanford-Burnham Center for Chemical Genomics, 2008).
The campaign covered roughly 50,000 compounds. About 800 (1.6%) showed an effect of 50% or more. This is one part of the list.

Target: Bcl-2-like protein 10 (Homo sapiens) (UniProt Q9HD36)
Experiment: Phenotype converters, Bcl-B/TR3 peptide binding displacement, primary biochemical FP (AID 1240);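 further: 0% = Bcl-B with tracer peptide and DMSO and 100% = tracer peptide lacking Bcl-B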
Settings: GST-Bcl-B / FITC-TR3 peptide fluorescence polarization; stronger effect = higher value; compound at 3.75 mg/L

Chain of UniProt Q9HD36 (Q9HD36 whole entry, looked up): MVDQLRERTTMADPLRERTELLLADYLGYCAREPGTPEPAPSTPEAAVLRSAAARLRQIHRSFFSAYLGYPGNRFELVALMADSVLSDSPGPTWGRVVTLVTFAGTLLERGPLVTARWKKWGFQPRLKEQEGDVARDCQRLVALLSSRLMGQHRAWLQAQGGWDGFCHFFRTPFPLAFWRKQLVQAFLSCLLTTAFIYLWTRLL

Compound	displacement [%]
COc1cccc(OCc2cc(C3Nc4ccccc4C(=O)N3Cc3ccco3)ccc2OC)c1 (stereo unspecified)	-23.2
O=C(NCC1CCCO1)c1ccc(Cl)c(Cl)c1 (stereo unspecified)	-1.4
O=C(c1cc(-c2ccccc2Cl)nc2ccccc12)N1CCN(c2ccc(F)cc2)CC1	0.5
COc1cc(C(c2c(C)[nH][nH]c2=O)c2c(C)[nH][nH]c2=O)ccc1OCc1ccccc1Cl	-2.3
O=C(O)c1ccc(-c2ccc(/C=C3\SC(=S)N(c4ccc([N+](=O)[O-])cc4)C3=O)o2)cc1	-58.9
Cc1nc(C2CC(=O)OC23CCCCC3)cs1 (stereo unspecified)	-4.4
COc1ccc(/C=N\NC(=O)c2ccc([N+](=O)[O-])cc2)cc1Cl	5.3
CCc1nnc(NC(=O)c2ccc([N+](=O)[O-])cc2)s1	3.6
Cc1occc1C(=O)Nc1ccc2ccccc2c1	12
O=C(Nc1ccc(F)c([N+](=O)[O-])c1)c1ccc(-c2cccc(Cl)c2)o1	2.8
CCOC(=O)c1c(NC(=O)c2c(-c3c(Cl)cccc3Cl)noc2C)sc2c1CCCC2	-18.9
O=C1/C(=C\c2cccc3ccccc23)SC(=S)N1CCc1ccccc1	-2.4
O=C(CSc1nnc(-c2ccco2)o1)c1ccccc1	-21.9
CS(=O)(=O)N(CC(=O)N1CCOCC1)c1ccc(Oc2ccccc2)cc1	3.2
O=C(NCCc1ccccc1)C(=O)Nc1ccc([N+](=O)[O-])cc1	7.8
O=C(Nc1ccc(Cl)cc1Cl)C1CC(=O)N(c2ccc(F)cc2)C1 (stereo unspecified)	-1.9
COc1ccccc1OCCCOc1ccccc1OC	17.4
CC1=C(C(=O)OCCc2ccccc2)C(c2cccc(Cl)c2Cl)CC(=O)N1 (stereo unspecified)	-8.4
Cc1cc2nc(-c3ccc(Cl)c(NC(=O)/C=C/c4ccco4)c3)oc2cc1C	-29.9
CN(C)c1ccc(/C=N/NC(=O)c2cc(-c3ccc4ccccc4c3)n[nH]2)cc1	5.9
COc1ccc(C2NC(C)(C)Cc3cc(OC)c(OC)cc32)cc1 (stereo unspecified)	-9.6
Cc1ccc(NC(=O)CN(c2ccc(Cl)cc2)S(C)(=O)=O)cc1	-12.2
COc1ccc(C2CC(c3ccc(Br)cc3)=NN2C(=O)CCC(=O)O)cc1OC (stereo unspecified)	6.1
COc1ccc(C2=N/C(=C/c3ccc([N+](=O)[O-])cc3)C(=O)N2c2ccc(O)cc2)cc1	1.2

Compound	displacement [%]
Cc1ccc(OCCc2c(C)n[nH]c2C)cc1C	14.6
CC(=O)NCCN=Cc1c(O)[nH]c2ccccc12	14
CCOc1cc(C2NC(=S)NC(C)=C2C(=O)Nc2ccc(Cl)cc2)ccc1O (stereo unspecified)	-3.2
NC(=O)c1ccc(NC(=O)COc2cccc(Cl)c2)cc1	1.7
CCOC(=O)c1c(NC(=O)C(C(C)C)N2C(=O)c3ccccc3C2=O)sc(C)c1C (stereo unspecified)	-16.7
Nc1nc(-c2cccc(Br)c2)cs1	-1.7
OCn1nc(-c2ccccc2Br)oc1=S	9.4
CCOc1cccc(-c2cc(C(=O)NCc3ccc4c(c3)OCO4)c3ccccc3n2)c1	-6.2
Cc1ccc(C2Nc3ccccc3C(=O)N2Cc2ccco2)cc1 (stereo unspecified)	15.4
Nc1ccc(Sc2ccccc2[N+](=O)[O-])cc1	10.9
COc1ccc(OCc2nc(-c3ccccn3)no2)cc1	12.3
Cc1cc(C)cc(NC(=O)c2c(-c3c(Cl)cccc3Cl)noc2C)c1	-1.8
CCOC(=O)C(=CNc1ccc(OC)c(Cl)c1)C(=O)OCC	0
COC(=O)CCC(=O)Nc1cccc(Br)c1	-19.7
Cc1ccccc1C(=O)NC(NC(=O)c1ccccc1C)c1cccc([N+](=O)[O-])c1	-2.7
Cc1ccc(C(=O)N/C(=C\c2cccc(Oc3ccccc3)c2)C(=O)NCc2ccncc2)cc1	20.4
COC(=O)C1=C(O)/C(=C/c2cc(C)n(-c3ccccc3C(F)(F)F)c2C)N=C1C	12.6
Cc1ccc(-c2csc(NC(=O)c3ccc([N+](=O)[O-])cc3Cl)n2)cc1	-10
COCCOC(=O)c1c(C)oc2ccc(OCc3ccc(F)cc3)cc12	9.3
CCCN1C(=O)c2ccccc2NC1c1ccc(OC)c(COc2ccc(F)cc2)c1 (stereo unspecified)	11.6
O=C(NCc1ccc2c(c1)OCO2)c1cccc([N+](=O)[O-])c1	-9.4
COc1ccc(N2C(=O)C(O)=C(C(=O)/C=C/c3ccccc3)C2c2ccc(Cl)cc2)cc1 (stereo unspecified)	-0.4
Cc1cc(-c2cc(Cl)ccc2O)n[nH]1	24.8
COc1ccc(NC(=O)c2ccccc2C)c(OC)c1	-5.1

Compound	displacement [%]
CC1(C)CC(=O)C(N=Nc2cc(C(F)(F)F)ccc2Cl)=C(O)C1	2.6
Cc1ccc(C(=O)CC(=O)c2ccccc2C)c(O)c1	15.9
NC(=O)c1ccc(NC(=S)Nc2ccccc2)cc1	-3.3
COC(=O)C1=C(C)NC(=O)NC1c1ccccc1Br (stereo unspecified)	-8.5
O=C(/C=C/c1ccco1)Nc1ccc(O)cc1C(=O)O	9.8
COC(=O)C1=C(C)NC(=S)NC1c1sccc1C (stereo unspecified)	4.9
CN(C)c1ccc(/C=C2\N=C(c3ccccc3Cl)OC2=O)cc1	-11.9
CC1(C)OC(=O)C(=Cc2ccc(-c3ccc(Cl)cc3Cl)o2)C(=O)O1	34.4
COCCCNC(=O)c1ccc(NC(C)=O)cc1	2
Cc1ccc(/C=N\N2CCN(c3ccc(Cl)cc3)CC2)cc1	-5.3
O=C(Nc1nc2ccccc2s1)C1CCCCC1	2.4
CCCC1=C(C(=O)OCC)C(c2ccc(Cl)cc2Cl)NC(=O)N1 (stereo unspecified)	-13.5
O=C(Nc1c(C(=O)N2CCOCC2)cnn1-c1ccccc1)c1ccccc1	40.9
COCCOC(=O)c1c(C)oc2ccc(OCc3ccc(Br)cc3)cc12	13.6
O=[N+]([O-])c1cccc(S(=O)(=O)Nc2cc(C(F)(F)F)ccc2Cl)c1	5.2
O=C(CN(c1ccc(Cl)cc1Cl)S(=O)(=O)c1ccccc1)NC1CCCC1	34.8
CC1=C(C(=O)Nc2ccc(Cl)cc2)C(c2ccc(N(C)C)cc2)NC(=S)N1 (stereo unspecified)	-9.2
O=C(COc1ccc(Br)cc1)NC1CCCCC1	-0.3
Cc1ccc(NC2=CC(=O)C=CC2=O)c(C)c1	17.6
COc1cccc(NC(=O)c2ccc(CN3CCN(Cc4ccccc4)CC3)cc2)c1	4.6
O=C(O)c1cccc(N2C(=O)c3cccnc3C2=O)c1	30.3
O=C(c1cccc(Cl)c1)N1CCN(c2cccc(Cl)c2)CC1	11.2
O=C(Cc1ccc(Cl)cc1)Nc1ccccc1I	0.6
